# Over roughly 33,000 sequences, “E-score (-0.5 to 0.5)” has its median near -0.016; the highest 2% begin near 0.31. The list shows a part of the results.
# Molecular target: Cst6 (UniProt P40535)
# Assay: PBM E-score (8-mer binding enrichment) (E-score (-0.5 to 0.5)); higher = stronger / more preferred TF binding; most listed sequences are background and not binding sites
# Details: protein concentration: 200 nM; construct: GST-DNA-binding domain
# Procedure, shortened: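 For each ungapped eight-base word taken together with its reverse complement, the Universal PBM Analysis Suite assigned an E-score. Binding data came from GST-tagged yeast transcription factors, applied at about 100-200 nM, on universal all-10-mer Agilent arrays made double-stranded by primer extension. Fluorescent anti-GST marked bound protein, and scans were normalised with masliner.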
row,Sequence,PBM E-score
1,GGAGAGGA,-0.417
2,AGGGTCAC,-0.263
3,CCAATCCG,-0.0831
4,GAGGGTTA,-0.139
5,TAAATGTA,0.148
6,CCCCGCAC,-0.105
7,AATGTAAC,0.0559
8,AAATCTCA,0.00253
9,TGACCGCA,0.271
10,CAGAATAC,-0.0294
11,CTCGAAGA,-0.0456
12,ATCTAGAC,-0.0539
13,GTCTGAGA,-0.0731
14,GACTTCCA,-0.273
15,CATCTCAA,0.168
16,CGCCCATA,-0.19
17,TAGTCAGA,-0.0527
18,GCCGTGTA,0.195
19,ATTGATAC,0.154
20,CACATAAA,0.206
21,GGTGTGAC,0.00955
22,CAACACTC,-0.00612

row,Sequence,PBM E-score
1,CATTCTCG,0.00146
2,CCATGGGC,-0.288
3,GCCGACCC,-0.303
4,ACTGTTGC,0.0739
5,GAGTCAAA,-0.106
6,AGCTAAGA,-0.0868
7,ACGTCATC,0.497
8,CCTACCTA,-0.213
9,AAAGCCGA,-0.204
10,CAGAGCCC,-0.177
11,CCGTGGGA,-0.0731
12,CATGATCC,-0.064
13,GCGCCGAA,0.132
14,ACCCAGCC,-0.362
15,GGCGGTCA,-0.171
16,TAGTTAAA,0.254
17,GAGGGTCC,-0.376
18,AACTCATG,0.148
19,AATTGCAG,0.0976
20,ACGGCACG,0.348
21,CGTATGTA,0.219
22,TACTCACA,0.123

row,Sequence,PBM E-score
1,CGAGCGAA,0.0641
2,CGTCGTAG,0.0343
3,TTGCCCAA,-0.161
4,GTCGAGAC,0.0529
5,CCTTGACC,-0.19
6,GGCGAGAA,0.0353
7,AGTCCGTG,-0.33
8,CTGAACTA,-0.134
9,AAACAGCA,0.0579
10,AACAAAGA,0.11
11,CTGGAGTA,-0.0677
12,CTGTGCGA,-0.0249
13,AAAGCGCG,-0.0309
14,CTAGACCC,-0.175
15,ATTTCCGA,0.0253
16,TGTTTCAA,0.246
17,GCAATATA,0.029
18,AAGTCTGC,-0.226
19,AAGCACAC,-0.12
20,ATCCCGGC,-0.108
21,CTATCGGA,-0.0998
22,CAGGCTGG,-0.201

row,Sequence,PBM E-score
1,CTAATCCC,0.0666
2,CGATCTAG,-0.172
3,ACTCCGAT,-0.197
4,ATGGGCTC,-0.167
5,AGACCTTG,-0.142
6,AAACCTCC,-0.255
7,AGTTCTGC,7e-05
8,ACTAATAA,0.234
9,CGCGTACG,0.269
10,AGACTTCG,-0.196
11,ACGCCTAA,0.0448
12,ACCCCCAA,-0.26
13,CGTGAGTC,-0.186
14,GCTACGGA,-0.163
15,CAACACGC,-0.2
16,CGCCCATC,-0.245
17,CCAATAAC,0.135
18,CTTACTGC,0.166
19,ACCGCGAA,-0.0784
20,GCGACGTA,0.219
21,CATACCCC,-0.136
22,GTTATCAA,0.0407

row,Sequence,PBM E-score
1,ACCGGCTG,-0.212
2,CAAGCTTC,-0.0873
3,ACGGAACA,-0.0248
4,CGACACGC,0.0217
5,ATCGATCG,0.197
6,ATGATGGA,0.192
7,AATAGCTC,-0.0576
8,ATCAGCGA,0.0226
9,CTTATGGA,-0.131
10,GGTCATAC,0.151
11,GCCCCTCA,-0.255
12,AACGTGAA,0.0952
13,CTCTGACC,-0.23
14,CTTCTGTC,0.121
15,ACATGTAC,-0.0906
16,CGCATTTC,0.0285
17,CGGGAAAG,0.00149
18,ACGGTCAT,0.266
19,ATAACGCA,0.0368
20,GTAGGTAA,0.00543
21,TAACCACA,0.0592

# Source: the supplement of paper PMC3334620
